Test results taken from ChEMBL document CHEMBL1201862, “PubChem BioAssay data set” (2004).
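Where inhibition never reached the appropriate level, the endpoint shown equals the highest concentration tested. Otherwise, values were interpolated linearly from a five-concentration, 48-hour dose response in 96-well plates. GI50 = concentration required for 50% inhibition of growth.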 Activity calls are given as the source filed them. No stated cut-off is given here; in the data, active = GI50 up to about 1.1 µM and inactive = higher.

System: NCI-H322M
Assay: inhibition of tumour cell growth, NCI panel, 48 h

Structure (SMILES) | GI50
CCN(CC)CCN1C(=O)c2cccc3cc(N)cc(c23)C1=O | inactive: 4.95 µM
O=c1c2cc(O)c(O)cc2oc2cc(O)c(C3OC(CO)C(O)C(O)C3O)c(O)c12 (centres undefined) | inactive: > 100 µM
Cc1cc2cc3c(O)nc(O)nc3nc2cc1C | inactive: > 100 µM
CCC1(OC(=O)CN)C(=O)OCc2c1cc1n(c2=O)Cc2cc3ccccc3nc2-1 (centres undefined) | active: 0.0485 µM
CCN(CC(=O)O)C(=O)c1cccnc1 | inactive: > 100 µM
Cc1c2c(cc3c1[nH]c1ccccc13)C=NCC2 | inactive: 8.91 µM
CC(SC1=CC(=O)c2c(O)ccc(O)c2C1=O)C(=O)O (centres undefined) | inactive: > 100 µM
COc1ccc(C(c2ccc(C(C)C)cc(=O)c2O)c2ccc3cccnc3c2O)cc1 (centres undefined) | inactive: 3.23 µM
O=C1OCC2=C1C(c1ccc(Cl)cc1)c1cc3c(cc1O2)OCO3 (centres undefined) | inactive: 8.32 µM
CCN(CC)c1c(C(=O)/C=C/c2ccc(Cl)cc2)c(-c2ccccc2)nn(C)c1=O | inactive: 1.96 µM
CCOC(=O)NC(Nc1ccc(C)cc1)(C(F)(F)F)C(F)(F)F | inactive: > 100 µM
CC1=NN(C(=O)CSc2nc3ccc(I)cc3c(=O)n2Cc2ccccc2)C(=O)C1 | inactive: 33.7 µM
O=C1CC(=O)NC(NN2C(=O)CSC2c2ccc(Cl)cc2)=N1 (centres undefined) | inactive: > 100 µM
CC(=O)/C(=C/N1CCNC1=S)C(=O)Nc1ccccc1C | inactive: > 100 µM
O=C(O)c1cccc2c1/C(=N/Nc1ccccc1)CC2 | inactive: > 100 µM
C[C@]12Cc3cnn(-c4ccc(F)cc4)c3NC1CC[C@@H]1C2CC[C@@]2(C)C1CC[C@@H]2O (some centres undefined) | inactive: 13 µM
C[C@H](CCC(=O)NN)[C@H]1CC[C@H]2[C@@H]3CC[C@@H]4C[C@H](O)CC[C@]4(C)[C@H]3CC[C@]12C | inactive: > 76.4 µM
O=C(O)CN(CC(=O)O)C1CCCCC1N(CC(=O)O)CC(=O)NCCN=C=S (centres undefined) | inactive: > 100 µM
CCOP1(=O)C=C(C)C(Cl)=C(C)C1 (centres undefined) | inactive: 46.1 µM
Cc1cc(NS(=O)(=O)c2ccc(Nc3c4ccccc4nc4c(C(=O)NC(CO)(CO)CO)cccc34)cc2)no1 | inactive: 34 µM
CCN1C/C(=C\c2ccc(Cl)cc2)C2=NN(c3ccccc3)C(c3ccc(Cl)cc3)C2C1 (centres undefined) | inactive: > 100 µM
C=C1CC[C@@H](CCC2CCC3(OC2)O[C@]2(O)CC[C@@]3(C)OC2(C)C)C(C)(C)[C@H]1C/C=C1\CCOC1=O (some centres undefined) | inactive: 29.1 µM
CCOC(=O)C(C(=O)OCC)C(=S)NC1OC(COC(C)=O)C(OC(C)=O)C(OC(C)=O)C1OC(C)=O (centres undefined) | inactive: > 100 µM

Structure (SMILES) | GI50
Oc1ccc(Br)cc1/C=N/C1CCCCC1 | inactive: 42.5 µM
ClCCCN1CCCCC1CCl (centres undefined) | inactive: > 100 µM
C1=CC=C2NCCCCCCC/N=C3/C=CC=CC=C3NCCCCCCC/N=C\2C=C1 | inactive: > 100 µM
CCOC(=O)C1=C(C)N(NC(=O)OC)C2(N)N(NC(=O)OC)C(C)=C(C(=O)OCC)C12C#N (centres undefined) | inactive: > 100 µM
CN(C)CCN(/C(=N/c1ccccc1)N1CCCC1)c1ccccc1 | inactive: > 100 µM
COC(=O)[C@@H](Nc1ccccc1)[C@@]1(C(=O)OC)SC12c1ccccc1-c1ccccc12 | inactive: > 100 µM
N#Cc1c(N2CCCC2)ncn(-c2ccccc2)c1=S | inactive: > 100 µM
CCOP(=O)(OCC)C1C(=O)O[C@H]2CCCC[C@@H]12 (some centres undefined) | inactive: > 100 µM
Cc1cc2[nH]c3c(C#N)c(-c4ccccc4)c(/N=N/c4cccc(C(F)(F)F)c4)c(=O)n3c2cc1C | inactive: 38.4 µM
COc1ccc(-c2cc(-c3ccncc3)nc(N)c2-c2ccc(F)cc2)cc1 | inactive: 86.3 µM
COc1ccc2c(c1)OCC1=C2Oc2ccccc2C1 | inactive: 69.8 µM
COC(=O)c1c(O)c(C#N)c2[nH]c3ccccc3n2c1=O | inactive: > 100 µM
NN/C(=N\S(=O)(=O)c1cccc2nsnc12)Nc1ccc(Cl)cc1 | inactive: > 100 µM
CC(C#N)Nc1ccc(Oc2ccc(C(C)(C)c3ccc(Oc4ccc(NC(C)C#N)cc4)cc3)cc2)cc1 (centres undefined) | inactive: > 100 µM
C#C[C@@H](OC(=O)c1ccc([N+](=O)[O-])cc1)[C@@H]1C[C@H]2O[C@@H]([C@H](C/C=C/CC)OC(=O)c3ccc([N+](=O)[O-])cc3)C[C@H]2O1 | inactive: > 100 µM
COc1ccc(N2C(=O)C3C=CC(n4[nH]c(=O)n(Cc5ccccc5)c4=O)CC3C2=O)cc1 (centres undefined) | inactive: > 100 µM
Cc1ccc(S(=O)(=O)N/N=C2/C3CCC(C3)C2c2ccccc2)cc1 (centres undefined) | inactive: > 100 µM
O=C(O)C(SC(=S)c1ccc(C(=S)SC(C(=O)O)c2ccccc2)cc1)c1ccccc1 (centres undefined) | inactive: > 100 µM
CN1CC=C(c2cccn2C)CC1 | inactive: > 100 µM
COC(=O)C(Cc1nc2ccc(Cl)cc2nc1O)C(=O)C(=O)Nc1ccccc1[N+](=O)[O-] (centres undefined) | inactive: > 100 µM
COC(=O)C(C(=O)C(=O)Nc1c(Cl)cc([N+](=O)[O-])cc1Cl)c1csc(-n2nc(C3=CCCCC3)cc2-c2ccccc2)n1 (centres undefined) | inactive: > 100 µM
NC1=NS(=O)(=O)Nc2[nH]c(-c3ccccc3)nc21 | inactive: > 100 µM
COc1cc2cc(C(=O)N3C[C@@H](CCl)c4c3cc(N)c3ccccc43)[nH]c2c(OC)c1OC | active: 0.0082 µM

Structure (SMILES) | GI50
C1CCCCc2nc3c(nc2CCC1)c1nc2c(nc1c1nc4c(nc31)CCCCCCCC4)CCCCCCCC2 | inactive: > 100 µM
COc1cc(OC)c([C@@H]2OC(=O)C3C2C(=O)O[C@H]3c2cc(OC)c(OC)cc2OC)cc1OC (some centres undefined) | inactive: > 100 µM
COC(C/C(=C/CO[Si](C(C)C)(C(C)C)C(C)C)C(=O)N(C(=O)OC(C)(C)C)c1ccccc1I)OC | inactive: > 100 µM
Cc1ccc(C2CC(c3ccco3)=NN2c2ccccc2)o1 (centres undefined) | inactive: > 100 µM
O=c1cccccc1NCCCCCCCCCNc1cccccc1=O | inactive: 25.8 µM
CCOc1ccc(/N=C\c2ccc3cc(C)ccc3n2)cc1 | inactive: > 100 µM
NS(=O)(=O)c1cc2c(cc1Cl)NC(C(=O)NNC(=O)c1ccncc1)=NS2(=O)=O | inactive: > 100 µM
CCOC(=O)[C@H](Cc1ccc(O)cc1)/N=C1/[C@H]2CCC[C@]1(O)[C@@](C)([N+](=O)[O-])C2 | inactive: > 100 µM
CCOc1cc(-c2nc3ccccn3c2/N=C/c2cc(Br)ccc2O)ccc1O | inactive: 42.7 µM
Cn1nc(C(=O)N2CC(CCl)c3c2cc(N)c2ccccc32)cc1NC(=O)Nc1cc(C(=O)N2CC(CCl)c3c2cc(N)c2ccccc32)nn1C (centres undefined) | active: 0.299 µM
CC1CN1c1c(C(=O)/C=C/c2ccc(F)cc2)c(-c2ccccc2)nn(C)c1=O (centres undefined) | inactive: 17.6 µM
COc1cccc2[s+]snc12 | inactive: > 100 µM
CCOC(=O)C(=NN(C)c1ncccc1N)C(=O)OCC | inactive: > 100 µM
C=C(CCC=C(C)C)C1CC=C(C)CC1 (centres undefined) | inactive: 81.3 µM
C=CCNC(=O)CN(CC(=O)O)C1CCCCC1N(CC(=O)O)CC(=O)O (centres undefined) | inactive: > 100 µM
COC1CC(C)C(OC)c2cc(O)cc(c2O)NC(=O)/C(C)=C/C=C\C(C)C(OC(N)=O)/C(C)=C\C(C)C1OC (centres undefined) | inactive: 4.78 µM
O=C(O)CCCN1CCCCC1 | inactive: > 100 µM
CCCCOCCOCCOC1=CC(=O)c2c(O)ccc(O)c2C1=O | inactive: 1.69 µM
CN1C(=O)C2(C)SC1(c1ccccc1)C1C(=O)N(c3ccccc3)C(=O)C12 (centres undefined) | inactive: > 100 µM
CN(C)C(=S)/N=c1\ss/c(=N\C(=S)N(C)C)n1-c1ccc2c(c1)OCO2 | inactive: > 100 µM
CCN(CC)CCCCC1CCN(CC(=O)N2c3cc(Cl)ccc3NC(=O)CC2C)CC1 (centres undefined) | inactive: > 100 µM
O=C(O)Cc1ccc(Oc2nc3ccccc3nc2-c2cccs2)cc1 | inactive: 78.9 µM
NC(=O)CCSC(CC(=O)c1ccc(Cl)cc1)c1ccc(Cl)cc1 (centres undefined) | inactive: 36.5 µM

Structure (SMILES) | GI50
Clc1ccc(OCC2NC3C=CC32)cn1 (centres undefined) | inactive: > 100 µM
C/C=C1\CNC1C(=O)O (centres undefined) | inactive: > 100 µM
COc1cc(C(=O)CBr)c(OC)cc1C | inactive: > 100 µM
CCCCCCC/C=C1\CCC(CN(C)C)C1=O (centres undefined) | inactive: 18.5 µM
CCOC(=O)C1(C(=O)OCC)CN(CC)CN(c2ccccc2)C1 | inactive: > 100 µM
COC(=O)/C=C\c1ccc2c(c1)CC1(C2)Cc2ccc(/C=C/C(=O)OC)cc2C1 (centres undefined) | inactive: > 31.6 µM
CC(C)(c1ccc(OC#N)cc1)c1ccc(OC#N)cc1 | inactive: > 100 µM
O=C(/N=C(/Nc1ccccc1)SCS/C(=N\C(=O)c1ccco1)Nc1ccccc1)c1ccco1 | inactive: > 100 µM
CC1(C)CC(=O)c2c(nc3c4c([nH]c(-c5ccc([N+](=O)[O-])cc5)c24)CC(C)(C)C3)C1 | inactive: > 100 µM
O=c1oc2cc(/N=C/c3ccccc3Cl)ccc2c2ccccc12 | inactive: > 100 µM
O=Cc1c(Br)[nH]c2ccccc12 | inactive: > 100 µM
NNc1nnc(CCCCCCCCc2nnc(NN)n2N)n1N | inactive: > 100 µM
COC1CC(CC2CCC(C)C(C(C)C(=O)O)O2)OC2(OC(C)(C3CCC(C)(C4OC(C5OC(O)(CO)C(C)CC5C)CC4C)O3)CC2C)C1C (centres undefined) | active: 0.918 µM
COc1ccccc1N1C(=O)/C(=C\c2cc(OC)c(OC)c(OC)c2)SC1c1ccccc1 (centres undefined) | inactive: > 100 µM
c1ccc(-c2c3c(nc4c2CC[C@H]4NC2=NCCN2)[C@@H](NC2=NCCN2)CC3)cc1 | inactive: > 100 µM
O=C1/C(=C/c2ccc(C(=O)O)cc2)CNC/C1=C\c1ccc(C(=O)O)cc1 | inactive: > 100 µM
CC(C)CC1c2[nH]c3ccccc3c2C[C@H]2C(=O)NC(COC(C)(C)C)C(=O)N12 (some centres undefined) | inactive: 31.8 µM
CN(C)CCNC(=O)c1ccc(NCCCN(C)CCCNc2ccc(C(=O)NCCN(C)C)c3nc4ccccc4c(O)c23)c2c(O)c3ccccc3nc12 | active: < 0.01 µM
O=c1c(C(c2ccc(C(c3c(O)oc4cc(O)ccc4c3=O)c3c(O)oc4cc(O)ccc4c3=O)cc2)c2c(O)oc3cc(O)ccc3c2=O)c(O)oc2cc(O)ccc12 | inactive: > 100 µM
COc1cc2cc(C(=O)N3CC(CCl)c4c3cc(N(C)C)c3ccccc43)[nH]c2c(OC)c1OC (centres undefined) | active: 0.0161 µM
